Measurements as given in the antibiotic and cytotoxicity screens of Wong et al. (2023).
This is one part of the list.

How the values were obtained:
[1] = tested on: HSkMC (human skeletal muscle cells); assay: cytotoxicity call (relative viability < 0.9); conditions: 10 µM
[2] = tested on: HepG2; assay: cytotoxicity call (relative viability < 0.9); conditions: 10 µM
[3] = tested on: S. aureus RN4220; assay: growth inhibition call (relative growth <= 0.2); conditions: 50 µM

C[C@H]1CCCCO[C@H](CN(C)S(=O)(=O)c2cccs2)[C@@H](C)CN([C@@H](C)CO)C(=O)c2cc(NC(=O)Nc3cccc4ccccc34)ccc2O1
inactive: cytotoxicity call [1] | cytotoxicity call [2] | growth inhibition call [3]

COc1cccc(C(=O)Nc2ccc3c(c2)C(=O)N(C)[C@H]2CC[C@H](CC(=O)NCCCN4CCOCC4)O[C@H]2CO3)c1
inactive: cytotoxicity call [1] | cytotoxicity call [2] | growth inhibition call [3]

C[C@@H]1CCCCO[C@H](CN(C)Cc2ccc(Cl)c(Cl)c2)[C@@H](C)CN([C@@H](C)CO)C(=O)c2cc(NC(=O)c3ccccc3)ccc2O1
inactive: cytotoxicity call [1] | cytotoxicity call [2] | growth inhibition call [3]

CO[C@@H]1CN(C)C(=O)c2cc(NC(=O)c3ccc(F)cc3)ccc2OC[C@H](C)N(C(=O)CN(C)C)C[C@@H]1C
inactive: cytotoxicity call [1] | cytotoxicity call [2] | growth inhibition call [3]

COc1ccc(CN(C)C[C@H]2OCCCC[C@H](C)Oc3ccc(NS(=O)(=O)c4ccc(C)cc4)cc3C(=O)N([C@H](C)CO)C[C@H]2C)cc1
inactive: cytotoxicity call [1] | cytotoxicity call [2] | growth inhibition call [3]

COc1cc(-c2coc3cc(O)c(OC)c(O)c3c2=O)cc(O)c1OC
inactive: cytotoxicity call [1] | cytotoxicity call [2] | growth inhibition call [3]

COc1ccc(S(=O)(=O)Nc2ccc3c(c2)C(=O)N([C@@H](C)CO)C[C@@H](C)[C@@H](CN(C)C(=O)CCC(F)(F)F)OCCCC[C@@H](C)O3)cc1
inactive: cytotoxicity call [1] | cytotoxicity call [2] | growth inhibition call [3]

C[C@H](CO)N1C[C@H](C)[C@@H](CN(C)Cc2ccccc2)Oc2ccc(NC(=O)CCCCCC(=O)Nc3ccccc3N)cc2C1=O
inactive: cytotoxicity call [1] | cytotoxicity call [2] | growth inhibition call [3]

C[C@@H]1CCCCO[C@@H](CN(C)C(=O)Cc2ccccc2)[C@H](C)CN([C@@H](C)CO)C(=O)c2cc(NC(=O)Cc3ccccc3)ccc2O1
inactive: cytotoxicity call [1] | cytotoxicity call [2] | growth inhibition call [3]
